# Experimental data: the supplement of paper PMC8728848
# Some of the results follow.
# Legend:
# Test in all cases: glycan array binding signal (z-score within array); higher = stronger binding
# Conditions in all cases: glycan notation: IUPAC condensed, linker removed; mutation: R343I
# GlcA(b1-3)GlcNAc = target: GlcA(b1-3)GlcNAc
# Summary of the method: (§1)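 The binding signal is a Z-score computed within each array. Data were drawn from 3228 arrays in the Consortium for Functional Glycomics database, restricted to those with a known protein sequence. Scores were averaged over arrays of the same protein sequence at different concentrations or buffers, and over linkers, and negative values can be taken as non-binding.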
# GlcA(b1-6)Gal = target: GlcA(b1-6)Gal
# Summary of the method: as §1
# [1] = target: GlcNAc(a1-3)Gal(b1-4)GlcNAc
# Summary of the method: as §1
# [2] = target: GlcNAc(a1-6)Gal(b1-4)GlcNAc
# Summary of the method: as §1
# [3] = target: GlcNAc(b1-2)Gal(b1-3)GalNAc
# Summary of the method: as §1
# [4] = target: GlcNAc(b1-2)Man(a1-3)[GlcNAc(b1-2)Man(a1-6)]Man(b1-4)GlcNAc(b1-4)GlcNAc
# Summary of the method: as §1
# GlcNAc(b1-3)Gal = target: GlcNAc(b1-3)Gal
# Summary of the method: as §1
# [5] = target: GlcNAc(b1-3)Gal(b1-3)GalNAc
# Summary of the method: as §1
# GlcNAc(b1-3)Gal(b1-4)Glc = target: GlcNAc(b1-3)Gal(b1-4)Glc
# Summary of the method: as §1
# [6] = target: GlcNAc(b1-3)Gal(b1-4)GlcNAc
# Summary of the method: as §1
# [7] = target: GlcNAc(b1-3)Gal(b1-4)GlcNAc(b1-3)Gal(b1-4)GlcNAc
# Summary of the method: as §1
# GlcNAc(b1-3)GalNAc = target: GlcNAc(b1-3)GalNAc
# Summary of the method: as §1
# GlcNAc(b1-3)Man = target: GlcNAc(b1-3)Man
# Summary of the method: as §1
# [8] = target: GlcNAc(b1-3)[GlcNAc(b1-4)][GlcNAc(b1-6)]GlcNAc
# Summary of the method: as §1
# [9] = target: GlcNAc(b1-3)[GlcNAc(b1-6)]Gal(b1-4)GlcNAc
# Summary of the method: as §1
# [10] = target: GlcNAc(b1-3)[GlcNAc(b1-6)]GalNAc
# Summary of the method: as §1
# [11] = target: GlcNAc(b1-4)Gal(b1-4)GlcNAc
# Summary of the method: as §1
# GlcNAc(b1-4)GlcNAc = target: GlcNAc(b1-4)GlcNAc
# Summary of the method: as §1
# [12] = target: GlcNAc(b1-4)GlcNAc(b1-4)GlcNAc
# Summary of the method: as §1
# [13] = target: GlcNAc(b1-4)GlcNAc(b1-4)GlcNAc(b1-4)GlcNAc(b1-4)GlcNAc
# Summary of the method: as §1
# [14] = target: GlcNAc(b1-4)GlcNAc(b1-4)GlcNAc(b1-4)GlcNAc(b1-4)GlcNAc(b1-4)GlcNAc
# Summary of the method: as §1
# [15] = target: GlcNAc(b1-4)[GlcNAc(b1-6)]GalNAc
# Summary of the method: as §1
# [16] = target: GlcNAc(b1-6)Gal(b1-4)GlcNAc
# Summary of the method: as §1
# GlcNAc(b1-6)GalNAc = target: GlcNAc(b1-6)GalNAc
# Summary of the method: as §1
# GlcNAc3Prop(b1-4)GlcNAc = target: GlcNAc3Prop(b1-4)GlcNAc
# Summary of the method: as §1
# Kdn(a2-3)Gal(b1-3)GlcNAc = target: Kdn(a2-3)Gal(b1-3)GlcNAc
# Summary of the method: as §1
# Kdn(a2-3)Gal(b1-4)GlcNAc = target: Kdn(a2-3)Gal(b1-4)GlcNAc
# Summary of the method: as §1
# [17] = target: Man(a1-2)Man(a1-2)Man(a1-3)Man
# Summary of the method: as §1
# [18] = target: Man(a1-2)Man(a1-2)Man(a1-6)[Man(a1-3)]Man
# Summary of the method: as §1
# Man(a1-2)Man(a1-3)Man = target: Man(a1-2)Man(a1-3)Man
# Summary of the method: as §1
# [19] = target: Man(a1-2)Man(a1-3)[Man(a1-2)Man(a1-6)]Man
# Summary of the method: as §1
# [20] = target: Man(a1-2)Man(a1-3)[Man(a1-2)Man(a1-6)]Man(a1-6)[Man(a1-2)Man(a1-2)Man(a1-3)]Man
# Summary of the method: as §1
# [21] = target: Man(a1-2)Man(a1-3)[Man(a1-2)Man(a1-6)]Man(a1-6)[Man(a1-2)Man(a1-2)Man(a1-3)]Man(b1-4)GlcNAc(b1-4)GlcNAc
# Summary of the method: as §1
# [22] = target: Man(a1-2)Man(a1-3)[Man(a1-6)]Man(a1-6)[Man(a1-2)Man(a1-3)]Man(b1-4)GlcNAc(b1-4)GlcNAc
# Summary of the method: as §1
# [23] = target: Man(a1-2)Man(a1-6)[Man(a1-3)]Man(a1-6)[Man(a1-2)Man(a1-2)Man(a1-3)]Man
# Summary of the method: as §1
# [24] = target: Man(a1-2)Man(a1-6)[Man(a1-3)]Man(a1-6)[Man(a1-2)Man(a1-2)Man(a1-3)]Man(b1-4)GlcNAc(b1-4)GlcNAc
# Summary of the method: as §1
# Man(a1-3)[Man(a1-6)]Man = target: Man(a1-3)[Man(a1-6)]Man
# Summary of the method: as §1
binder,measurement,setting,value
Surfactant Protein D (Human); Neck + Carbohydrate Recognition Domain (NCRD) (Homo sapiens) (protein) MLLFLLSALVLLTQPLGYLEAEMKTYSHRTMPSACTLVMCSSVESGLPGRDRDGREGPRGEKGDPGLPGAAGQAGMPGQAGPVGPKGDNGSVGEPGPKGDTGPSGPPGPPGVPGPAGREGALGKQGNIGPQGKPGPKGEAGPKGEVGAPGMQGSAGARGLAGPKGERGVPGERGVPGNTGAAGSAGAMGPQGSPGARGPPGLKGDKGIPGDKGAKGESGLPDVASLRQQVEALQGQVQHLQAAFSQYKKVELFPNGQSVGEKIFKTAQFVKPFTEAQLLCTQAGGQLASPRSAAENAALQQLVVAKNEAAFLSMTDSKTEGKFTYPTGESLVYSNWAPGEPNDDGGSEDCVEIFTNGKWNDIACGEKRLVVCEF,glycan array binding signal (z-score),GlcA(b1-3)GlcNAc,-0.275
same,glycan array binding signal (z-score),GlcA(b1-6)Gal,-0.266
same,glycan array binding signal (z-score),[1],1.21
same,glycan array binding signal (z-score),[2],-0.261
same,glycan array binding signal (z-score),[3],-0.277
same,glycan array binding signal (z-score),[4],5.45
same,glycan array binding signal (z-score),GlcNAc(b1-3)Gal,-0.281
same,glycan array binding signal (z-score),[5],-0.238
same,glycan array binding signal (z-score),GlcNAc(b1-3)Gal(b1-4)Glc,-0.116
same,glycan array binding signal (z-score),[6],0.166
same,glycan array binding signal (z-score),[7],-0.027
same,glycan array binding signal (z-score),GlcNAc(b1-3)GalNAc,-0.253
same,glycan array binding signal (z-score),GlcNAc(b1-3)Man,-0.076
same,glycan array binding signal (z-score),[8],0.573
same,glycan array binding signal (z-score),[9],1.31
same,glycan array binding signal (z-score),[10],-0.167
same,glycan array binding signal (z-score),[11],-0.27
same,glycan array binding signal (z-score),GlcNAc(b1-4)GlcNAc,-0.23
same,glycan array binding signal (z-score),[12],0.081
same,glycan array binding signal (z-score),[13],-0.056
same,glycan array binding signal (z-score),[14],-0.204
same,glycan array binding signal (z-score),[15],-0.05
same,glycan array binding signal (z-score),[16],-0.275
same,glycan array binding signal (z-score),GlcNAc(b1-6)GalNAc,-0.272
same,glycan array binding signal (z-score),GlcNAc3Prop(b1-4)GlcNAc,-0.278
same,glycan array binding signal (z-score),Kdn(a2-3)Gal(b1-3)GlcNAc,-0.257
same,glycan array binding signal (z-score),Kdn(a2-3)Gal(b1-4)GlcNAc,-0.275
same,glycan array binding signal (z-score),[17],4.64
same,glycan array binding signal (z-score),[18],3.86
same,glycan array binding signal (z-score),Man(a1-2)Man(a1-3)Man,4.19
same,glycan array binding signal (z-score),[19],1.37
same,glycan array binding signal (z-score),[20],4.37
same,glycan array binding signal (z-score),[21],2.4
same,glycan array binding signal (z-score),[22],4.08
same,glycan array binding signal (z-score),[23],4.33
same,glycan array binding signal (z-score),[24],4
same,glycan array binding signal (z-score),Man(a1-3)[Man(a1-6)]Man,0.263
